Data taken from PubChem BioAssay AID624417 (National Center for Advancing Translational Sciences (NCATS), 2012).
The campaign covered roughly 410,000 compounds. About 6,400 (1.6%) were called active. The shares of active, inactive and inconclusive entries below differ from those in the screen. Calls come from the whole dose curve; as a rule, active = well fitted inhibition curve with a large enough effect; inconclusive = small, poorly fitted or top-dose-only effect; inactive = no such curve, though single readings can be large or run the other way. Potencies of inconclusive entries are left out as doubtful fits.

Target: Glucagon-like peptide 1 receptor (Homo sapiens) (UniProt P43220)
Experiment: qHTS of GLP-1 Receptor Inverse Agonists (Inhibition Mode); note: nearly all actives have a fitted effect of over 55% in size
Conditions: HEK293 GLP-1R CRE-luciferase, luminescence, 24 h, GLP-1R form is constitutively active; activity change, negative = inhibition: at 38.3 µM (top of the series) unless noted
Outline: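 Cells are plated, allowed 12 hours at 37 deg C, then treated with compounds for 24 hr before luciferase detection reagent is added and luminescence is read after 12 min at room temperature. The HEK293 line carries constitutively active GLP-1R with a cAMP-responsive reporter.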
% is set by controls: 0 for no effect and ±100 for the full control effect; potency is the fitted concentration of half-maximal effect; tags give direction and shape of the fitted curve.

Chain of UniProt P43220 (P43220 whole entry, looked up): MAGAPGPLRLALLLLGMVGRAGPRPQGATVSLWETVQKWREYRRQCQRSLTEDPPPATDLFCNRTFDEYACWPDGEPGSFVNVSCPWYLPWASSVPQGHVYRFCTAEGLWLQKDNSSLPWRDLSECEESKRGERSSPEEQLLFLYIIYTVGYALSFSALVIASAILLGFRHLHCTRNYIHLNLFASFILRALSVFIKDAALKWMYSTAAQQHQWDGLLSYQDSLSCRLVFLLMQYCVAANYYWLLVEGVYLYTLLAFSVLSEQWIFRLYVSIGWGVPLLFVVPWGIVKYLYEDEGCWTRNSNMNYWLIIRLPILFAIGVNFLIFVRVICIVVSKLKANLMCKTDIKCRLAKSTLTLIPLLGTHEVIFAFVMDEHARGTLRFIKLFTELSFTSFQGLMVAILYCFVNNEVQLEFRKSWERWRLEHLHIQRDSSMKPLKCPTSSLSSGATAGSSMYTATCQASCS

**Q.** How did the Potency turn out when `COc1ccc(C2c3c(C)nn(-c4ccccc4)c3NC(=O)N2c2ccccc2)cc1` (configuration not stated) was run?
**A.** inconclusive [inhibitor, partial curve, poor fit]

**Q.** With `O=[N+]([O-])/C=C/c1cn(Cc2ccc(Cl)cc2)c2ccccc12` as the molecule, how does the Potency read?
**A.** inconclusive [inhibitor, partial curve, poor fit]

**Q.** Which Potency does the source give for `COc1ccc(CNC(=O)CN(Cc2ccccc2)S(=O)(=O)c2ccc(Cl)cc2)cc1` here?
**A.** inconclusive [inhibitor, single point]

**Q.** For `COC(=O)[C@H](C)[C@@H]1C[C@@]1(C)[C@@H](NC(=O)OCc1ccccc1)c1ccccc1`, which Potency is on record?
**A.** inconclusive [inhibitor, partial curve, poor fit]

**Q.** How did the Potency turn out when `Cc1ccc(S(=O)(=O)N2CCN(C(=O)CN3C(=O)NC(C)(c4ccc(Cl)cc4)C3=O)CC2)c(C)c1` (configuration not stated) was run?
**A.** inconclusive [inhibitor, single point]

**Q.** For `Cc1ccc(OCCC(=O)Nc2ccc(S(=O)(=O)N3CCCC3)cc2)cc1`, which Potency is on record?
**A.** inconclusive [inhibitor, single point]

**Q.** How did the Potency turn out when `Cc1ccc(NS(=O)(=O)c2ccc3c(c2)CCCN3C(=O)C2CCC2)cc1Cl` was run?
**A.** inconclusive [inhibitor, single point]

**Q.** With `CCOC(=O)c1ccc(N/C(=N\S(=O)(=O)c2ccc(F)cc2F)c2ccccc2)cc1` as the molecule, how does the Potency read?
**A.** inconclusive [inhibitor, partial curve, poor fit]

**Q.** `Cc1[nH]c2ccccc2c1C(=O)C(C)OC(=O)C1CCC1` (configuration not stated) was tested. Which Potency did it give?
**A.** inconclusive [inhibitor, single point]

**Q.** For `Cc1ccc(NC(=O)CN2C(=O)C3(SCC(=O)N3c3cccc(Cl)c3)c3ccccc32)cc1C` (configuration not stated), which Potency is on record?
**A.** inconclusive [inhibitor, full curve]

**Q.** With `CCCN1C[C@H](CSC)C[C@@H]2c3cccc4[nH]cc(c34)C[C@H]21` as the molecule, how does the “activity change, negative = inhibition” value read?
**A.** inactive: -5.89%

**Q.** `Cc1nn(CC(=O)Nc2ccc(C(C)C)cc2)c(C)c1[N+](=O)[O-]` was tested. Which Potency did it give?
**A.** inconclusive [inhibitor, partial curve]

**Q.** Which Potency does the source give for `Cc1ccc(NC2Sc3ccccc3NC2=O)cc1` (configuration not stated) here?
**A.** inconclusive [inhibitor, partial curve, poor fit]

**Q.** With `Cc1cc(NC(=O)COc2ccccc2C)ccc1NC(=O)c1cccs1` as the molecule, how does the Potency read?
**A.** inconclusive [inhibitor, single point]

**Q.** With `N#Cc1cccc(NC(=O)Cn2cnc(S(=O)(=O)N3CCc4ccccc43)c2)c1` as the molecule, how does the Potency read?
**A.** inconclusive [inhibitor, single point]

**Q.** `O=C(Nc1ccc(F)cc1)Nc1cccc(Br)c1` was tested. Which Potency did it give?
**A.** inconclusive [inhibitor, single point]

**Q.** `Fc1cccc(-n2cc(-c3ccccc3)c3c(=S)nc[nH]c32)c1` was tested. Which Potency did it give?
**A.** inconclusive [inhibitor, partial curve, poor fit]

**Q.** `COc1ccc(C(C)(O)c2nc(-c3csc4ccccc34)cs2)cc1` (configuration not stated) was tested. Which Potency did it give?
**A.** inconclusive [inhibitor, partial curve]

**Q.** Which Potency does the source give for `CN(CCOc1cccc(C(F)(F)F)c1)Cc1ccccc1` here?
**A.** active: 10 µM

**Q.** Which Potency does the source give for `CCOc1nc(Nc2ccc([N+](=O)[O-])cc2)nc(NC(C)(C)C)n1` here?
**A.** inconclusive [inhibitor, single point]

**Q.** For `S=C(Nc1ccccc1)N1CCN(C/C=C/c2ccccc2)CC1`, which Potency is on record?
**A.** inconclusive [inhibitor, partial curve, poor fit]

**Q.** Which Potency does the source give for `CCCCCC(=O)NC(=S)Nc1ccc(Cl)cn1` here?
**A.** inconclusive [inhibitor, single point]

**Q.** With `CC(C(=O)Nc1ccccc1Br)c1ccc([N+](=O)[O-])cc1` (configuration not stated) as the molecule, how does the Potency read?
**A.** inconclusive [inhibitor, partial curve, poor fit]

**Q.** With `Cc1cc2nc(-c3ccc(Cl)cc3)c(CC(C)(C)C)n2c(C)c1Br` as the molecule, how does the Potency read?
**A.** inconclusive [inhibitor, partial curve, poor fit]

**Q.** `CC(=O)C1=NN(c2ccccc2)C(c2ccc3c(c2)OCO3)N1c1ccc(N2CCOCC2)cc1` (configuration not stated) was tested. Which Potency did it give?
**A.** inconclusive [inhibitor, partial curve, poor fit]

**Q.** For `COc1cccc(NC(=O)CN2CCc3ccccc3C2)c1`, which Potency is on record?
**A.** inconclusive [inhibitor, single point]

**Q.** `COC(=O)c1c(C)oc2ccc(N(C(=O)c3ccncc3)S(=O)(=O)c3ccc(C)cc3)cc12` was tested. Which Potency did it give?
**A.** inconclusive [inhibitor, full curve, poor fit]

**Q.** How did the Potency turn out when `CCOc1cc(S(=O)(=O)NCc2ccc3c(c2)OCO3)c(C)cc1C` was run?
**A.** inconclusive [inhibitor, single point]

**Q.** `Cn1c(N)c(C(=O)COC(=O)C23CC4CC(CC(C4)C2)C3)c(=O)n(C)c1=O` was tested. Which Potency did it give?
**A.** inconclusive [inhibitor, single point]

**Q.** `CCOc1cccc(N(C(=O)CCC(=O)Nc2cc(C)on2)C(C(=O)NC(C)(C)C)c2ccc(OC)cc2)c1` (configuration not stated) was tested. Which Potency did it give?
**A.** inconclusive [inhibitor, single point]

**Q.** `Cc1c(OCc2ccccc2)c(=O)ccn1Cc1ccc(Cl)cc1` was tested. Which Potency did it give?
**A.** inconclusive [inhibitor, partial curve, poor fit]

**Q.** Which “activity change, negative = inhibition” value does the source give for `C[C@@H]1CN([C@H](C)CO)C(=O)CCCn2nncc2CO[C@H]1CN(C)C(=O)c1cc(-c2ccccc2)on1` here?
**A.** inactive: 9.63%

**Q.** For `CCOc1ccccc1NS(=O)(=O)c1ccc(-c2cnc(C3CC3)o2)cc1`, which Potency is on record?
**A.** inactive

**Q.** How did the Potency turn out when `C[C@H](NC(=O)c1nc[nH]c1C(=O)N[C@@H](CCCCNC(=O)OC(C)(C)C)C(=O)OC(C)(C)C)C(=O)OCc1ccccc1` was run?
**A.** inconclusive [inhibitor, single point]

**Q.** Which Potency does the source give for `Cc1ccc(-n2ncc3c2CCCC3NC(=O)c2csnn2)cc1C` (configuration not stated) here?
**A.** inconclusive [inhibitor, single point]

**Q.** Which Potency does the source give for `CCCCCOC(=O)Cn1c(SCC(=O)Nc2ccccc2)nc2c1c(=O)[nH]c(=O)n2C` here?
**A.** inconclusive [inhibitor, partial curve]

**Q.** How did the Potency turn out when `COc1ccc(C(=O)Nc2ccccc2N2CCCC2)cc1` was run?
**A.** inconclusive [inhibitor, single point]
